PubChem BioAssay AID1645887 (National Center for Advancing Translational Sciences (NCATS), 2021)
Values joined by “and” are separate entries in the source; they are usually repeats but may differ in a detail not shown here. Identical values can stand only once. Screen size: about 16,000 compounds; about 40 (0.2%) were called active. About 1% were inconclusive and are not listed. Calls follow the shape of the dose curve; as a rule, active = well fitted activation curve with a large enough effect; inconclusive = small, poorly fitted or top-dose-only effect, or another doubt; inactive = no such curve, though single readings can be large or run the other way. The list shows a part of the results.

target: Rap guanine nucleotide exchange factor 4 (Homo sapiens) (UniProt Q8WZA2); test: Validation qHTS for agonist of cAMP-regulated guanine nucleotide exchange factor 4 (EPAC2); details: EPAC2 Rap1B BODIPY-GDP exchange, fluorescence; activation: stronger effect = higher value;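 also: exchange makes BODIPY-GDP fluorescence drop when released from Rap1B; series mostly up to about 150 µM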
Procedure, shortened: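 Signal normalized against 6.5 mM cAMP as agonist control. Mix of EPAC2 (100 nM), RAP1B-BODIPY-GDP (250 nM) and GDP (50 uM) was read kinetically at 480/540 nm, every 5 min over 30 min, after 5 min room-temperature incubation with compound.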
% is scaled to controls: 0 for no effect and ±100 for the full control effect.

UniProt Q8WZA2, sequence (Q8WZA2 whole entry, looked up): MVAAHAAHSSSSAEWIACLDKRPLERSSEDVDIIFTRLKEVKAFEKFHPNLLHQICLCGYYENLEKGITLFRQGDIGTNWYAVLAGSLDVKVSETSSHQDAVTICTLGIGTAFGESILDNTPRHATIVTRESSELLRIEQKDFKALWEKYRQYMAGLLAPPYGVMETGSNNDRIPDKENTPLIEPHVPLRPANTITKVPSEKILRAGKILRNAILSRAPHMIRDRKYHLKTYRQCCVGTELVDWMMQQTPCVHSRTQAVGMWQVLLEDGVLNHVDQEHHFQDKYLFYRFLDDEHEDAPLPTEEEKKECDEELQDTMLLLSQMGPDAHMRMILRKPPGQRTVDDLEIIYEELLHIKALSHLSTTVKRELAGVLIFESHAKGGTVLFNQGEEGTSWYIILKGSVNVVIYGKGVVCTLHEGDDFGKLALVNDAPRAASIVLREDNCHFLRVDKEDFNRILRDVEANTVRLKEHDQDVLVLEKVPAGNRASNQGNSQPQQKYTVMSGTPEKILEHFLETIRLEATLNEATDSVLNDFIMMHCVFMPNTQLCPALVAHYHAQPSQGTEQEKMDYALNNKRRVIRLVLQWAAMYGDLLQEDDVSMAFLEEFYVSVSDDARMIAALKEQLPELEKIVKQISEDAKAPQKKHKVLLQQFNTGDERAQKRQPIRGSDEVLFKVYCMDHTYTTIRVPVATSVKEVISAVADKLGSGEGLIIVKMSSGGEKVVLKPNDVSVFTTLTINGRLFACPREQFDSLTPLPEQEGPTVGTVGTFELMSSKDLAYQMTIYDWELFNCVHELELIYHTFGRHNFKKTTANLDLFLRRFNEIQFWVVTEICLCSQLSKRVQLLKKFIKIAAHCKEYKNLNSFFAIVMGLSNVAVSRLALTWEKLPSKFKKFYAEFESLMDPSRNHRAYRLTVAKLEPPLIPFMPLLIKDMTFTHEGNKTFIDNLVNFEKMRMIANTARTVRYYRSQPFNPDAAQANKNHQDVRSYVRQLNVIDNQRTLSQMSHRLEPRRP

Molecule | activation
CC1=C2C3OC(=O)[C@H](C)[C@H]3CC[C@@]2(C)C=CC1=O (stereo partly drawn) | inactive: -0.976%
CC(C)CN1CC[C@@]2(CCCN(C(=O)Oc3ccccc3)C2)C1 | inactive: -0.364%
NNC(N)=O | inactive: -13%
ClC1=C(Cl)[C@]2(Cl)[C@@H]3[C@H]4C[C@H]([C@@H]5O[C@H]45)[C@@H]3[C@@]1(Cl)C2(Cl)Cl | inactive: -2.08%
CC1(C)N(O)C(c2ccc(C(=O)O)cc2)=[N+]([O-])C1(C)C | inactive: -19.6%
CC(C)[C@@]1(NC(=O)[C@H]2CC3c4cccc5[nH]cc(c45)C[C@H]3N(C)C2)O[C@@]2(O)C3CCCN3C(=O)[C@@H](Cc3ccccc3)N2C1=O (stereo partly drawn) | inactive: 17.1%
CC(C)(C)NCC(O)c1cc(Cl)c(N)c(Cl)c1 (stereo not drawn) | inactive: -16.3% and inactive: 0.535%
CC[C@]1(C2=NCCN2)Cc2ccccc2O1 | inactive: -2.67%
Fc1ccc(C(OCCN2CCN(CCCc3ccccc3)CC2)c2ccc(F)cc2)cc1 | inactive: -7.07% and inactive: -6.71% and inactive: -27.8%
N[C@@H](CCl)C(=O)O | inactive: -37%
COc1cc2c(cc1OC)[C@@]13CCN4CC5=CCO[C@H]6CC(=O)N2[C@H]1[C@H]6[C@H]5C[C@H]43 | inactive: -9.08%
CCOCN(C(=O)CCl)c1c(C)cccc1CC | inactive: -5.56%
C=C1[C@@H](C)[C@H]2[C@H](Cc3ccccc3)NC(=O)[C@]23[C@H](OC(C)=O)/C=C/[C@](C)(O)C(=O)[C@@H](C)C/C=C/[C@H]3[C@@H]1O | inactive: -7.31%
CC(CN)CC(=O)O (stereo not drawn) | inactive: -6.06%
C=C(C)[C@H]1Cc2c(ccc3c2O[C@@H]2COc4cc(OC)c(OC)cc4[C@@H]2C3=O)O1 | inactive: -12.6% and inactive: -27.2% and inactive: -56.9%
COC(=O)C1=CCCN(C)C1 | inactive: -7.37% and inactive: -14.9% and inactive: -24.3%
C=C(C)CN1CC[C@@]23c4c5ccc(O)c4O[C@H]2c2[nH]c4ccccc4c2C[C@]3(O)[C@@H]1C5 | inactive: -27.3%
NCC(CC(=O)O)c1ccc(Cl)s1 (stereo not drawn) | inactive: 0.78%
O=c1ccc2cc(O[C@H]3OC(CO)C(O)C(O)C3O)c(O)cc2o1 (stereo partly drawn) | inactive: -3.84% and inactive: -2.45%
O=C(/C=C/c1ccc(Cl)cc1)N[C@@]12CCC(=O)[C@@H]3Oc4c(O)ccc5c4[C@@]31CCN(CC1CC1)C2C5 | inactive: 8.59%
O=C1/C(=C\c2ccccc2)C[C@@]2(O)[C@H]3Cc4ccc(O)c5c4[C@@]2(CCN3CC2CC2)[C@H]1O5 | inactive: 5.66%
c1cc2cc(c1)C[n+]1ccc(c3ccccc31)NCc1ccc(cc1)CNc1cc[n+](c3ccccc13)C2 | inactive: -15.2%
C/C=C(\CC)C(=O)NC(N)=O | inactive: -6.29%
Oc1ccc2c3c1O[C@H]1c4c(c5ccccc5n4Cc4ccccc4)C[C@]4(O)[C@H](C2)N(CC2CC2)CC[C@@]314 | inactive: -11.5%
H-YGGFLRKYPK-OH | inactive: 7.38%
Oc1ccc2c3c1O[C@H]1c4c(c5ccccc5n4Cc4ccccc4)C[C@@]4(O)C(C2)N(CC2CC2)CC[C@]314 | inactive: -8.5%

Molecule | activation
COC1=CC(=O)OC(/C=C/c2ccccc2)C1 (stereo not drawn) | inactive: -10.5%
COCC(C)N(C(=O)CCl)c1c(C)csc1C (stereo not drawn) | inactive: -5.5%
CC(C)=CCN1CC[C@@]2(C)c3cc(O)ccc3C[C@@H]1[C@@H]2C | inactive: -8.78%
Cc1nnc2n1-c1ccc(Cl)cc1C(c1ccccc1Cl)=NC2 | inactive: 15.3%
CC(N)Cc1c[nH]c2ccc(O)cc12 (stereo not drawn) | inactive: 5.71% and inactive: -3.5%
CC(=O)O[C@H]1C[C@H](O[C@H]2[C@@H](O)C[C@H](O[C@H]3[C@@H](O)C[C@H](O[C@H]4CC[C@@]5(C)[C@H](CC[C@@H]6[C@@H]5C[C@@H](O)[C@]5(C)[C@@H](C7=CC(=O)OC7)CC[C@]65O)C4)O[C@@H]3C)O[C@@H]2C)O[C@H](C)[C@H]1O[C@@H]1O[C@H](CO)[C@@H](O)[C@H](O)[C@H]1O | inactive: -23.6%
O=C1CN=C(c2ccccc2)c2cc(Cl)ccc2N1CC1CC1 | inactive: -22.9%
N[C@H](CCCCCP(=O)(O)O)C(=O)O | inactive: -7.03% and inactive: 2.47%
NC(Cc1cc(O)c(O)cc1O)C(=O)O (stereo not drawn) | inactive: -54.9%
C[C@H]1CCC[C@H](O)CCCCCc2cc(O)cc(O)c2C(=O)O1 | inactive: -1.04%
O=C(CN1CCCCC1)c1ccccc1 | inactive: -16.1%
C/C=C1/C[C@@H](C)[C@](O)(CO)C(=O)OCC2=CCN3CC[C@@H](OC1=O)C23 (stereo partly drawn) | inactive: 2.37%
N[C@@H](CCCCP(=O)(O)O)C(=O)O | inactive: 5.15%
O=C1C=C2C(=CCOC2O)O1 (stereo not drawn) | inactive: -3.22%
COc1ccc2c3c1O[C@H]1[C@H](O)CC[C@H]4[C@@H](C2)N(C)CC[C@@]341 | inactive: 4.18%
O=c1oc2ccccc2c(O)c1C(c1ccccc1O)c1c(O)c2ccccc2oc1=O | inactive: -35.2%
C[C@@H](Cc1ccccc1)NCCC(c1ccccc1)c1ccccc1 | inactive: -12.8%
OCC(O)Cc1ccc2c(c1)OCO2 (stereo not drawn) | inactive: -14.9%
CC1=C2[C@H]3OC(=O)[C@@H](C)[C@@H]3CC[C@@]2(C)C=CC1=O | inactive: -7.81%
COP(=S)(OC)SCN1C(=O)c2ccccc2C1=O | inactive: -9.49%
O=[N+]([O-])c1c2ccccc2cc2ccccc12 | inactive: -9.34%
CCCN(CCC)C1CCc2ccc(O)cc2C1 (stereo not drawn) | inactive: -3.55% and inactive: -18.5%
CCC(C)C(=O)OC1C(O)C2C(CN3CC(C)CCC3[C@]2(C)O)C2C[C@]34O[C@@]5(O)C(OC(=O)C(C)(O)CC)CCC3(C)C5C(OC(C)=O)C(OC(C)=O)C4[C@@]21O (stereo partly drawn) | inactive: -1.91%
CCCC(=O)OC(C(Cl)(Cl)Cl)P(=O)(OC)OC (stereo not drawn) | inactive: -13.9%
CCC(N)C(O)c1ccc(O)c(O)c1 (stereo not drawn) | inactive: -7.38%
CC(C)CCON=O | inactive: 3.62%

Molecule | activation
CC[C@H](C)[C@H]1O[C@]2(C=C[C@@H]1C)C[C@@H]1C[C@@H](C/C=C(\C)[C@@H](O[C@H]3C[C@H](OC)[C@@H](O[C@H]4C[C@H](OC)[C@@H](O)[C@H](C)O4)[C@H](C)O3)[C@@H](C)/C=C/C=C3\CO[C@@H]4[C@H](O)C(C)=C[C@@H](C(=O)O1)[C@]34O)O2 | inactive: -30.9%
CC1=C(O)C(=O)C=C2C1=CC=C1[C@]2(C)CC[C@@]2(C)C3C[C@](C)(C(=O)O)CC[C@@]3(C)CC[C@@]12C (stereo partly drawn) | inactive: -13.4%
CC(C)n1cnc2c(C(=O)N[C@H]3CN4CCC3CC4)cc(Cl)cc21 | inactive: -3.07%
C[C@@H](Cc1ccccc1)N(C)C | inactive: -13.5%
CC(=O)N1CC2CC(C1)c1cccc(=O)n1C2 (stereo not drawn) | inactive: -2.05%
CC(C)(O)[C@@H]1[C@H]2OC(=O)[C@@H]1[C@]1(O)C[C@H]3O[C@]34C(=O)O[C@H]2[C@@]14C (tested in a mixture with another compound) | inactive: -11.3%
NC(N)=NCCCCCCCCCCN=C(N)N | inactive: -12% and inactive: 0.499%
CC1(C)C(C=C(Cl)Cl)C1C(=O)OC(C#N)c1cccc(Oc2ccccc2)c1 (stereo not drawn) | inactive: 4.44% and inactive: -0.317%
O=C(O)[C@@H]1Cc2[nH]cnc2C(c2cccnc2)N1 (stereo partly drawn) | inactive: -7.21%
Oc1cc(Cl)ccc1Oc1ccc(Cl)cc1Cl | inactive: 15% and inactive: -39.4%
CC[C@@H](O)C(C[C@@H](C)N(C)C)(c1ccccc1)c1ccccc1 | inactive: -4.06%
NCC(O)c1cccc(O)c1 (stereo not drawn) | inactive: -5.63%
c1csc(C2(N3CCCCC3)CCCCC2)c1 | inactive: -11.7%
CCC(=O)O[C@H]1[C@@H](N2CCCCC2)C[C@H]2[C@@H]3CC[C@H]4C[C@H](OC(C)=O)[C@@H](N5CCCCC5)C[C@]4(C)[C@H]3CC[C@@]21C | inactive: -11.9%
CCOC(=O)[C@]12Cc3cc(OC)ccc3[C@H]1N(Cc1ccccc1)C(=O)c1cc(F)c(F)cc12 | inactive: -20.3%
CC[C@@H]1CN2CC[C@@H]1C[C@H]2[C@H](O)c1ccnc2ccc(OC)cc12 | inactive: -8.78%
C[C@]12N[C@H](Cc3ccccc31)c1ccccc12 | inactive: 7.5% and inactive: -11.3% and inactive: -36.4%
O=C(N[C@@H]1N=C(c2ccccc2F)c2cccc3c2N(CC3)C1=O)c1cc2ccccc2[nH]1 | inactive: -11.6%
O=C1CCCN1CC#CCN1CCCC1 | inactive: -4.96% [middle of 4 runs]
CC(C)(C)c1o[nH]c(=O)c1CC(N)C(=O)O (stereo not drawn) | inactive: -25.4%
C=CCC1(C(C)CCC)C(=O)N=C(S)NC1=O (stereo not drawn) | inactive: -15.4%
CCN(CC)C(C)C(=O)c1ccccc1 (stereo not drawn) | inactive: 5.71%
COc1ccc2c(c1OC)C(=O)O[C@@H]2C1c2cc3c(cc2CCN1C)OCO3 (stereo partly drawn) | inactive: -5.82%
N#Cc1cccc(NC(=O)N2CC3(CCN(C(=O)Oc4ccccc4)CC3)C2)c1 | inactive: -4.84%
CC(C)CN1CC2(CCN(C(=O)Oc3ccccc3)CC2)C1 | inactive: 4.73%
CCN1C[C@@]2(COC)C3[C@@H](OC)C4[C@@H]1[C@@]3(C1C[C@@]3(O)[C@H](OC(=O)c5ccccc5)C1[C@]4(OC(C)=O)[C@@H](O)[C@@H]3OC)[C@@H](OC)C[C@H]2O (stereo partly drawn) | inactive: 5.32%
